# Assay results: PMC10668032
# This is one part of the list. At the low end of the ranking the order means little.
# Target: SIX1-Q177R homeodomain (UniProt Q15475)
# Test: universal protein binding microarray
# Conditions: Universal all-10-mer PBM (8x60K, AMADID 030236), 300 nM GST-tagged protein, Alexa Fluor 488 anti-GST; buffer, salt, pH and temperature not stated; high values mean tight binding; most listed sequences are background and not binding sites; double strand, one strand shown
row,Sequence,binding signal
1,CTATTCAC,0.0248 E-score
2,CAGAATCG,-0.111 E-score
3,AGGCACTA,-0.108 E-score
4,CGGCGACA,0.064 E-score
5,AGCGGAGC,-0.19 E-score
6,CGTCGAAA,-0.282 E-score
7,AGCTTGAG,-0.0536 E-score
8,GTTTAGCA,-0.0902 E-score
9,ACAAGCAC,0.0981 E-score
10,GCGCCCGA,-0.0332 E-score
11,CTGGTGTA,0.484 E-score
12,CCAGATCG,0.126 E-score
13,AAGGCCAC,-0.0875 E-score
14,CCGTACGG,0.108 E-score
15,ATAGGTCC,-0.181 E-score
16,CAAAAAGC,-0.146 E-score
17,ACTAGTCG,0.0985 E-score
18,TACCGTGA,0.0532 E-score
19,CTCCCGAA,0.00455 E-score
20,CTGTGTTA,0.114 E-score
21,AGACTACT,-0.107 E-score
22,CCGTTCAC,-0.0936 E-score
23,TAAGTAAA,-0.288 E-score
24,CCTATTTA,-0.0674 E-score

row,Sequence,binding signal
1,GAGTAGTA,0.0475 E-score
2,CTGATACC,0.312 E-score
3,ACACAGCC,0.164 E-score
4,AATTAGTG,0.111 E-score
5,ATACGTTC,-0.147 E-score
6,AGGACGAC,-0.0215 E-score
7,ACTACCTC,0.045 E-score
8,GGAGCGCA,-0.154 E-score
9,AATAAAAC,-0.0472 E-score
10,TATAGTCA,-0.19 E-score
11,GAGCAATC,-0.144 E-score
12,CGACGACC,0.0183 E-score
13,GTCCTAAC,-0.0314 E-score
14,CACTCGCA,0.264 E-score
15,GACTATGA,-0.231 E-score
16,ATAACTCC,0.181 E-score
17,GCCGGTCC,-0.095 E-score
18,CCTGGTAG,-0.0392 E-score
19,ACCCCAGT,0.27 E-score
20,CTGGCAAA,-0.124 E-score
21,GACTCAAA,-0.0712 E-score
22,AGGAGGAA,-0.151 E-score
23,CGTTCCTA,-0.103 E-score
24,GTTCGAAC,0.284 E-score

row,Sequence,binding signal
1,AGACCACC,-0.135 E-score
2,GCTGTTAC,-0.225 E-score
3,CGCACTCA,-0.00377 E-score
4,AACCATCT,0.0146 E-score
5,ATAGCCGA,-0.112 E-score
6,GTAATAAA,0.0109 E-score
7,TACGTGAA,-0.0509 E-score
8,CTCTCGAA,-0.0527 E-score
9,AGCCTGGA,-0.142 E-score
10,AAGGGGCC,-0.0942 E-score
11,CATAGTCG,-0.213 E-score
12,TATTTAAA,-0.0888 E-score
13,CCGGAACA,-0.0551 E-score
14,TAGTCCGA,-0.245 E-score
15,CATCAACG,-0.0928 E-score
16,ACTTGTCA,0.0416 E-score
17,ACTTGAAG,0.0635 E-score
18,GATGTCAC,0.0447 E-score
19,GCAACGGA,-0.0926 E-score
20,GTCAACAA,0.111 E-score
21,AGGATTAT,-0.153 E-score
22,GGTTGAAA,-0.0735 E-score
23,CTGGCTGC,-0.0483 E-score
24,CAGTGTAC,0.404 E-score

row,Sequence,binding signal
1,AGGTGTTA,0.463 E-score
2,GAACAACC,-0.0972 E-score
3,GACCTTCA,-0.311 E-score
4,ATTGCTTA,-0.21 E-score
5,AGTTTGTA,-0.0869 E-score
6,AGGGACAT,-0.0868 E-score
7,AGGTCGCC,-0.213 E-score
8,AACCCCTC,0.27 E-score
9,ACATGCTC,-0.162 E-score
10,ATTTCTTA,-0.189 E-score
11,CGGGCATA,0.121 E-score
12,AGGCCATC,-0.232 E-score
13,CGGCACGA,0.0663 E-score
14,CACTTAGC,0.179 E-score
15,AACGACTG,-0.125 E-score
16,CCAGCCCC,-0.0112 E-score
17,TACCCAAA,0.067 E-score
18,GTGACCCA,0.0818 E-score
19,CCTCCTCA,0.0152 E-score
20,GACATGCA,-0.0151 E-score
21,AATGCGAA,-0.139 E-score
22,CTAGCATC,-0.264 E-score
